From PubChem BioAssay AID1468 (National Center for Advancing Translational Sciences (NCATS), 2008)
Out of some 280,000 compounds screened, about 1,100 (0.39%) were called active. The inconclusive results got no clear call from the source; some entries with a clear call stand among them for comparison. Calls come from the whole dose curve; as a rule, active = well fitted inhibition curve with a large enough effect; inconclusive = small, poorly fitted or top-dose-only effect, or effect the other way; inactive = flat fitted curve, though single readings scatter. Where the call is inconclusive, the potency comes from a doubtful curve fit.

molecular target: Microtubule-associated protein tau (Homo sapiens) (UniProt P10636); assay: qHTS for Inhibitors of Tau Fibril Formation, Fluorescence Polarization; conditions: K18 P301L tau heparin fibrillization, Alexa594 FP, 6 h; series mostly up to 57.7 µM; note: nearly all actives have a fitted effect of over 55% in size
Chain of UniProt P10636 (P10636 whole entry, looked up): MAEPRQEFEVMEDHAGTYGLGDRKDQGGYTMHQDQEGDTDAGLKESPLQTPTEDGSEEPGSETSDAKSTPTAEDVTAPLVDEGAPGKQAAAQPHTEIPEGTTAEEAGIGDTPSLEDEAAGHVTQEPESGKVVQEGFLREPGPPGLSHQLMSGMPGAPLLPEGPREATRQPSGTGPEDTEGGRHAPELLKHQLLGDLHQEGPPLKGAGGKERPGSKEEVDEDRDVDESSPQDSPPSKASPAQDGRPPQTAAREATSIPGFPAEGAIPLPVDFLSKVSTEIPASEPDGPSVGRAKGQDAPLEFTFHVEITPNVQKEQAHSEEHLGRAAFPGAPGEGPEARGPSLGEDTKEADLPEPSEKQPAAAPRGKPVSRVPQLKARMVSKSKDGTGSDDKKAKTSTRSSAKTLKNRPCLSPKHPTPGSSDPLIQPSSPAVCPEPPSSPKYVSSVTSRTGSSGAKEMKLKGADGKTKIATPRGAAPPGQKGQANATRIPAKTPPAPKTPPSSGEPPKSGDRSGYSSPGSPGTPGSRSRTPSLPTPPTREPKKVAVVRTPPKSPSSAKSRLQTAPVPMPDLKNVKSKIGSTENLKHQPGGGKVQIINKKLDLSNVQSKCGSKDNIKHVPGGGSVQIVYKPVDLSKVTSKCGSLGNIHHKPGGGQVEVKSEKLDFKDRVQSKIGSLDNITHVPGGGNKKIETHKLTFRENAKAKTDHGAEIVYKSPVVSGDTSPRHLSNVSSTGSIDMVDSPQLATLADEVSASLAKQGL
Summary of the method: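 Quantitative HTS format: compounds meet 15 uM recombinant K18 P301L tau and Alexa 594-tau tracer in 100 mM sodium acetate pH 7; 20 uM heparin triggers fibrillization at 37 C over 6 hr; FP gives the signal.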
Potency is the fitted concentration of half-maximal effect; tags give direction and shape of the fitted curve.

Potency, inactive:
Cc1ccc(C(C)C)c(OCCCn2c(=O)oc3ccc(C)cc32)c1, COc1ccc(-n2ncc(C(=O)NCCCN3CCCCC3)c2C2CCN(C(=O)OC(C)(C)C)CC2)cc1, Cc1ccc(N2C(=O)C3C(C2=O)C(C(=O)c2ccc(Cl)cc2)N2CCCC32)cc1 (stereo unspecified), COc1ccc(C(=O)Nc2ccc(C3=NNC(=O)CC3C)cc2NC(=O)c2ccc(OC)cc2)cc1 (stereo unspecified), CCc1ccccc1NC(=O)C(=O)NCC(c1cccnc1)N1CCc2ccccc21 (stereo unspecified), Cc1ccccc1OCC(=O)Nc1ccc2nc(SCCOc3ccccc3)sc2c1, CCCNC(=O)c1csc2c1CCCCC2, COc1ccc(N2C(=S)NC3CS(=O)(=O)CC32)cc1 (stereo unspecified), COc1ccccc1C(=O)NCC(=O)N/N=C/c1cccc(Cl)c1, O=C(CCCOc1ccc(Cl)cc1Cl)N1CCc2ccccc2C1, O=C(Nc1noc2ccccc12)c1c(F)cccc1F, Cc1cccc(NC(=O)CN2C(=O)COc3ccc(S(=O)(=O)N4CCC(C)CC4)cc32)c1C, CCOc1ccc(NC(=O)CCS(=O)(=O)c2ccc(Br)s2)cc1, CCOC(=O)C1CCN(C(=O)C2CCN(c3nnc(C)c4c(C)n(-c5ccccc5)nc34)CC2)CC1, CCCC(=O)Nc1cc(C(=O)NCc2ccc(OC)cc2)ccc1S(=O)(=O)c1ccc(Cl)cc1

Potency, inconclusive:
CC(=O)NC1=NC(=O)/C(=C/c2cn(C(C)=O)nc2-c2ccccc2)S1 25.1 µM [inhibitor, partial curve], Cc1cc([N+](=O)[O-])nn1CC(=O)NCCCn1ccnc1 20 µM [inhibitor, single point], NS(=O)(=O)c1ccc(CCNc2nc3c(-c4cccc(F)c4)nnn3c3ccccc23)cc1 22.4 µM [inhibitor, single point], CCOc1cccc(C(=O)Nc2ccc(-c3nc4cc(C)cc(C)c4o3)cc2)c1 2.51 µM [inhibitor, partial curve], N#Cc1ccc(/C=C\c2nccc3c2[nH]c2ccccc23)cc1 5.62 µM [inhibitor, single point], N#CCCN(C(=O)CSc1ccc2c(c1)OCCO2)c1ccccc1 17.8 µM [inhibitor, single point], COc1ccc(-c2cc(-c3ccc4c(c3)NC(=O)CO4)nc3c2COc2ccc(C)cc2-3)cc1 28.2 µM [inhibitor, single point], Clc1ccc2nc(CN3CCCCCC3)cn2c1 0.178 µM [inhibitor, full curve, poor fit], Cc1cccc(OCCOCCn2c(-c3ccc(Cl)cc3)nc3ccccc3c2=O)c1C 10 µM [inhibitor, partial curve, poor fit], CC1(C)CC(=O)C2=C(C1)c1c(ccc3ccccc13)NC2c1cc([N+](=O)[O-])cc([N+](=O)[O-])c1O (stereo unspecified) 39.8 µM [inhibitor, single point], N#Cc1c(Cl)nsc1NN 10 µM [inhibitor, partial curve], CCOC(=O)[C@]1(C(/C=C/c2ccco2)NC(=O)OC)CCCC1=O (stereo partly specified) 7.94 µM [inhibitor, single point], O=C(COC(=O)CCC(NC(=O)OCc1ccccc1)C(=O)OCC(=O)Nc1ccccc1)Nc1ccccc1 (stereo unspecified) 2 µM [inhibitor, full curve], CN(C)c1cc(Cl)c2nonc2c1N 31.6 µM [inhibitor, partial curve], CCCCNC(=O)C1c2ccccc2Oc2ccccc21 1 µM [inhibitor, full curve, poor fit], O=c1c2cc3c(cc2n(Cc2cccc(Cl)c2)c(=O)n1Cc1nc(-c2ccccc2)no1)OCO3 39.8 µM [inhibitor, single point], COc1ccc(Nc2ncc(C(=O)Nc3cc(Cl)c(OC)cc3OC)c3ccccc23)cc1 15.8 µM [activator, partial curve, poor fit], O=C(Nc1nc2c(ccc3ccccc32)s1)c1ccco1 44.7 µM [inhibitor, single point], NC(=NCc1ccccc1)NC(=O)c1nc(Cl)c(N)nc1N 7.94 µM [inhibitor, single point], Cc1ccccc1NC(=O)CC1S/C(=N/c2nccs2)N(C)C1=O (stereo unspecified) 20 µM [activator, single point], Cc1noc(Cn2c(=O)c3ccccc3n(CC(=O)Nc3ccc(Cl)cc3)c2=O)n1 44.7 µM [inhibitor, single point], Cc1nn(C2CCS(=O)(=O)C2)c(Cl)c1/C=C/C(=O)OCC(=O)c1c[nH]c2ccccc12 (stereo unspecified) 35.5 µM [inhibitor, single point], O=C(O)c1cc(O)c2c(c1)C(=O)c1cccc(O)c1C2=O 35.5 µM [inhibitor, single point], CCOc1ccc(NC(=O)CSc2ncc3c(n2)-c2cc(Cl)ccc2N(C)S3(=O)=O)cc1 14.1 µM [inhibitor, partial curve], Cc1ccccc1N(C)S(=O)(=O)c1ccc2[nH]cc(C(=O)NCC3CCCO3)c(=O)c2c1 (stereo unspecified) 14.1 µM [inhibitor, partial curve], N#CC(C#N)=C1C=CC=CN1/C(=C\c1ccco1)C(=O)c1ccc(Br)cc1 35.5 µM [inhibitor, single point], CCCC(=O)Nc1cc(-c2nc3cccnc3s2)ccc1C 17.8 µM [activator, partial curve, poor fit], COc1ccc(CN2CCN(CCCc3ccccc3)CC2)c(OC)c1 8.91 µM [inhibitor, single point], c1cc2c(cnc3cscc32)s1 28.2 µM [inhibitor, single point], CCO/C=C1/C(=O)N(CC)c2ccccc21 35.5 µM [inhibitor, single point], O=C(/C=C/c1ccc2c(c1)OCO2)Nc1nc(-c2ccc(F)cc2)cs1 39.8 µM [inhibitor, single point], CC(=O)c1ccc(NC(=O)C2=CC(c3cccs3)=NS(=O)(=O)N2C)cc1 22.4 µM [inhibitor, single point], O=c1c2ccccc2nc(/C=C/c2ccc(O)cc2)n1CCc1ccccc1 35.5 µM [inhibitor, single point], Cc1nc2c(c(C)nn2-c2ccccc2)c(C)c1CCC(=O)Nc1ccc(F)cc1 4.47 µM [inhibitor, partial curve], Cc1ccc(OCC(=O)NCC2CCCO2)c(C)c1 (stereo unspecified) 0.0631 µM [inhibitor, full curve, poor fit], Cc1ccc(Cl)cc1NC(=O)C(NS(=O)(=O)c1cccc2nsnc12)c1ccccc1 (stereo unspecified) 15.8 µM [inhibitor, partial curve, poor fit], Cc1ccccc1NC(=O)Nc1ccc2nc(N3CCN(C)CC3)cc(C)c2c1 2.51 µM [activator, full curve, poor fit], Cc1[nH]n(-c2ccc([N+](=O)[O-])cc2)c(=O)c1C=NCCc1c(C)[nH]c2ccccc12 35.5 µM [activator, single point], COc1cc(C2c3c(oc4ccccc4c3=O)C(=O)N2c2nc(C)c(C)s2)ccc1O (stereo unspecified) 44.7 µM [inhibitor, single point], Cc1ccc(C(=O)CSC2=NC(N)=C(C#N)C3(CCCCC3)C2C(N)=O)cc1 (stereo unspecified) 20 µM [inhibitor, partial curve], Cc1ccc([N+](=O)[O-])cc1-c1ccc(/C=C(\C#N)c2[nH]nc(N)c2C#N)o1 15.8 µM [activator, single point], Cc1ccc(Oc2ncccc2/C=N/OCc2ccc(Cl)cc2Cl)cc1 12.6 µM [inhibitor, single point], Cc1ccc(Cl)cc1OCC(=O)NCCOC(=O)Nc1sc(=S)n(C)c1C 39.8 µM [activator, single point], COCCOc1ccc(C(F)(F)F)cc1Nc1nc2ccccc2o1 14.1 µM [inhibitor, partial curve], Cc1ccc(CSc2oc(-c3ccco3)nc2S(=O)(=O)c2ccc(Br)cc2)cc1 3.55 µM [inhibitor, partial curve], C=CCC(C)(O)c1ccco1 (stereo unspecified) 44.7 µM [inhibitor, single point], O=C(O)c1cccc(NC2=C(N3CCOCC3)C(=O)c3ccccc3C2=O)c1 25.1 µM [inhibitor, partial curve, poor fit], Cc1ccc(CNc2nc3c(S(=O)(=O)c4ccc(C)c(C)c4)nnn3c3ccc(Cl)cc23)cc1 22.4 µM [inhibitor, partial curve], Cc1nn(-c2ccc(C(=O)O)cc2)c(N)c1-c1ccccc1 10 µM [inhibitor, single point]

Potency, active:
Cc1cc(C)c2c(=O)n(CC(=O)NCCCN3CCOCC3)sc2n1 15.8 µM, COc1cc(Nc2nc(SCc3cccc(Cl)c3)nc3ccccc23)cc(OC)c1 7.94 µM
